Source: article PMC12136788
The list shows a part of the results.

T1: UNK ZnF1-6 (called full-length) (human, UniProt Q9C0B0 30-357)
T1 sequence: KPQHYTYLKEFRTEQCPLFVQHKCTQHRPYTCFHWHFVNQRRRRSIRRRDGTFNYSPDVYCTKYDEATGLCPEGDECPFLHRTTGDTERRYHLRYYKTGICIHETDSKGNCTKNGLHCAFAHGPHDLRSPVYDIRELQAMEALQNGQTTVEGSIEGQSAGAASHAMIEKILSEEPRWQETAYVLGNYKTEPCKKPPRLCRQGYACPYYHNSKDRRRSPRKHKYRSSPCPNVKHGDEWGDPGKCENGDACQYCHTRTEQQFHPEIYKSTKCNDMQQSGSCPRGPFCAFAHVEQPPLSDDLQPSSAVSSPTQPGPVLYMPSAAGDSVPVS

B1: ENSG00000107863:be:win_2701|CDS|ENSG00000107863|bound_else_gene|NA|bound_elsewhere_windowed (ssRNA)
RNA: GGGAGUUCUACAGUCCGACGAUCUCUAGUCUGAAGGGAAUCAAGAUCGCAGACAGCCAAAAGUCAUCAGAAGACUCUGGGUCCAGAAAAGAUUCUUCCUCAGAGGUCUUCAGUGAUGCUGCCAAGGAAGGGUGGCUUCAUUUCCAACAGAGGAUUGAGCAUCA
B2: ENSG00000107863:be:win_4201|CDS|ENSG00000107863|bound_else_gene|NA|bound_elsewhere_windowed (ssRNA)
RNA: GGGAGUUCUACAGUCCGACGAUCAAGGAUCAGUAUAGCAGGGAACUGCUUGUGUCCUCCAUCUUUGCAGCUGCUAGUCGCAAGAGGAAGAAGCCGAAAGAAAAAGCACAGCCUAGCAGCUCAGAAGAUGAACUGGACAAUGUACAACAGAGGAUUGAGCAUCA
B3: chr1:35359206:35359314:+|CDS|ENSG00000146463|unk|total|mutant (ssRNA)
RNA: GGGAGUUCUACAGUCCGACGAUCAAAGACUUUCCUAAACAAUUUGAUCAGGUUUCUGUCUUUAAAUCAAUACGGAAAGAUUUCCGUCCCGUAAGAGAAAACAGCAAAGAGACAUUUUCUGGAAAGGAGAAAAACCGAGACCUACAACAGAGGAUUGAGCAUCA
B4: chr10:68791452:68791550:+|3pUTR|ENSG00000060339|msi1_unk|total|mutant (ssRNA)
RNA: GGGAGUUCUACAGUCCGACGAUCCCCGCCUUCAAAUUAUUAAACACUCCUUGAGUGAAAUAAUUUUGCAUUGCAAAGUGUUUCCGGAUGAACUUUGUUACCGUUUUAACUCCAAUAAAGUUCAUCAGUUUAAUUGACUGCCGUCAACAGAGGAUUGAGCAUCA
B5: chr2:105361111:105361195:-|3pUTR|ENSG00000115641|msi1_unk|FALSE|overlapping (ssRNA)
RNA: GGGAGUUCUACAGUCCGACGAUCCUUUCUCACCCAGGCAAUCUUGCCUUCUGGUUUCUUCCAGCCACAUUGAGACUUUCUUCUAGUGCUUUUCAGUGAUACUCACGUUUGCUUAAACCCUUUAGUGCUUUGUGAUAGUUCAGUCAACAGAGGAUUGAGCAUCA
B6: chr4:7762510:7762611:-|3pUTR|ENSG00000196526|msi1|FALSE|unique (ssRNA)
RNA: GGGAGUUCUACAGUCCGACGAUCGUGCAAUAUUUCUUGGAGAAUUUGGAUGCCUAAGGCAUAAAGGAAAAAAACAGAGUUCAUAGUUUGAGCUGGUAUUUACCCCCUGGGUUUAAAAAUCAGAUUAACUUCUUGGUCUCCCGGCAACAGAGGAUUGAGCAUCA
B7: chr10:103302795:103303961:-|three_prime_utr|ENSG00000156374|control|control|control (ssRNA)
RNA: GGGAGUUCUACAGUCCGACGAUCGUCUGCUUGUCCUUCAUUAUGGUCUUGUGGUUUCUCCUCUGAAGAUAACUUGAAGAUUCUAGGCACAUUAUGAGGAGGGAAACAAAGGAGGCUUCUGCAGGACUGCAUCUCACCAAAGAUCAACAGAGGAUUGAGCAUCA
B8: ENSG00000198589:be:win_2851|CDS|ENSG00000198589|bound_else_gene|NA|bound_elsewhere_windowed (ssRNA)
RNA: GGGAGUUCUACAGUCCGACGAUCUCUUCAACUUCAGUUCAAGCAGCCUCUGGCAUUAGAAGGGAUAUUAAUGUUUCAGUAGGAUCCCAGCAACCAGAUACGAAGGAUUCUCCUGUCUGUCCUCAUUUCACCACAAAUGGUAAUCAACAGAGGAUUGAGCAUCA
B9: chr18:31624441:31624542:-|3pUTR|ENSG00000118276|unk|total|mutant (ssRNA)
RNA: GGGAGUUCUACAGUCCGACGAUCAUUAAAUAUUCUAUUUUUAUAAAGAUAAAUACUCCGCCGAUAAAAACAAAUUUUAAGUUCCGUUUUCAGACACCGAAUUUCACUUUUGGAGGGGACCCUUGAAUGUCCGUUUCAUUCAAACAACAGAGGAUUGAGCAUCA
B10: chr12:109281406:109281799:-|CDS|ENSG00000139445|control|control|control (ssRNA)
RNA: GGGAGUUCUACAGUCCGACGAUCCGCCCUGCCGGACCUCAGCCCCAGCCCGCUCCCCCACCCCGCCAUGGGAAGGGCUCCUGUAGACUUCAUCAACAUCAGCACCGACAUGAACACUGAGGUGGAUGCCCUCGACCCGAGCAUCAACAGAGGAUUGAGCAUCA
B11: chr10:70435285:70435983:-|CDS|ENSG00000156574|control|control|control (ssRNA)
RNA: GGGAGUUCUACAGUCCGACGAUCCAGGCCUCUCUCCAAGUGGCUGAAGCACCCUGGGGCCCUGGAGAAGCAGAUGUCCAGGGUAGCUGGAGAGUGCUGGCCGCGGCCCCCCACACCGCCUGCCACCAAUGUGCUCCUUAUGCUCAACAGAGGAUUGAGCAUCA
B12: chr19:48404743:48404844:+|CDS|ENSG00000105464|unk|total|mutant (ssRNA)
RNA: GGGAGUUCUACAGUCCGACGAUCCGAGCAACAGCUUCAGGUCAUCUUUGAGGUGCUGGAGGAGUAUGACUGGACGUCCUUUGCCGCCGUGACCACUCGUGCCCCUGGCCACCGGGCCUUCCUGUCCUACAUUGAGGUGCUGACCAACAGAGGAUUGAGCAUCA
B13: chr16:57472207:57472321:-|3pUTR|ENSG00000125170|unk|FALSE|unique (ssRNA)
RNA: GGGAGUUCUACAGUCCGACGAUCUCAAACUUUUGGUUGUGUGGGGUUUUUUGUUGUUUUUUGGGUUUUGUUUUUUAAUACUUUAGGGUCCUGAUUUGUGGGAACAGACCUUCUUGUAAAUAACCACUAUUUGAGUUGUGGCAGCAACAGAGGAUUGAGCAUCA
B14: chr2:205796339:205796442:+|3pUTR|ENSG00000118257|msi1|FALSE|unique (ssRNA)
RNA: GGGAGUUCUACAGUCCGACGAUCAAGUCCGCAAGUACUGUGGACAAGAAUGCUUAACCAUGCUGCUUCAGCCUUGAGAGACCUAGGUUCUUACACAUAUGCACACACGCAUACACACAUGCACGCACACACACAUACACACAUCAACAGAGGAUUGAGCAUCA
B15: chr10:95311796:95311897:-|3pUTR|ENSG00000095637|unk|total|mutant (ssRNA)
RNA: GGGAGUUCUACAGUCCGACGAUCCAGACACCGAUUUUUCUGUUCAUUUAUUUUUCUUCAUUGCAGUGGAUUGAUUUGAUAAACCGAUGUGUUGAAUUACUACAUUUGCUGUACAUAUUAUUUAAUAAACUUUAUUCAGAAUUGCAACAGAGGAUUGAGCAUCA
B16: chr11:2944997:2945113:-|3pUTR|ENSG00000205531|unk|total|mutant (ssRNA)
RNA: GGGAGUUCUACAGUCCGACGAUCCUGUGCCGAGCCGGGCCCUGUUCUCCUCCGGAUGUUGCUUCUUGAUUUUUUUUUUUUUUCCGGGGUGGGUCAGGGUUGUGACACACCAGCCCAGGUGAGAGCUGCUGCGGGUCACCUCAUCAACAGAGGAUUGAGCAUCA
B17: chr9:26904889:26904990:-|3pUTR|ENSG00000137055|msi1|FALSE|bound_elsewhere (ssRNA)
RNA: GGGAGUUCUACAGUCCGACGAUCAUAAUUUCUUGAUUUGUCAUUUAUAAAUCCUAAAGUAUAUUUGUUUAAUGGCCUAUUUUUAGAUGAAGAAAAAGCCAGUUGGUAAGCUGUGUUAGUCAUGUAUCAGUUCAGACAGACGAGCAACAGAGGAUUGAGCAUCA
B18: chr2:46903092:46903222:-|3pUTR|ENSG00000180398|msi1|total|mutant (ssRNA)
RNA: GGGAGUUCUACAGUCCGACGAUCAAGCAGAAACCCCUGAUAAACUGAUCAGAUCUCAUGAGACUUAUUCACUGUCACGAGAACCGCACGGGAAAGACUGGCCCCCAUGAUUCAAUUACCUCCCCCUGGGUCUGUCCCACAACACAACAGAGGAUUGAGCAUCA
B19: chr6:35118271:35118501:-|CDS|ENSG00000124678|control|control|control (ssRNA)
RNA: GGGAGUUCUACAGUCCGACGAUCUCAGCGGAUCCAUUUGUUUCUCAAAUGCUGUUUGGUUCUUGGUGUGCAGCGGUCUCUAUUAGACCUUCCUGGAGGCCUUACUCUCAUUGAAGCAGAACUGGCAGAACUGGGCCAAAAGUUCAACAGAGGAUUGAGCAUCA
B20: chr6:121448137:121448244:+|3pUTR|ENSG00000152661|msi1|total|mutant (ssRNA)
RNA: GGGAGUUCUACAGUCCGACGAUCAUGAGGCUCCGAAAACACAAAGACAUCCGAAUACCCCGGUUCACUGGGGGUGUAUGGGGCCGAUGGGUGGAGAGGGAGGGGAUAAGAGAGGUGCAUGUUGGUAUUUAAAGCCGUGGAUUCCAACAGAGGAUUGAGCAUCA
B21: chr4:125449804:125449905:+|CDS|ENSG00000196159|msi1|total|mutant (ssRNA)
RNA: GGGAGUUCUACAGUCCGACGAUCAAACAGAUCUUAAAAUACCAAAAUGUCACUGGCUUCAGUAAUGUGAAUAUCAACAGGCACCGUUUUACCGUGACAUCUUCAGAUCGAGGUAAACCUUCCUUAAUCCGUGAGACAACAGUUCAACAGAGGAUUGAGCAUCA
B22: ENSG00000124766:be:win_1451|3pUTR|ENSG00000124766|bound_else_gene|NA|bound_elsewhere_windowed (ssRNA)
RNA: GGGAGUUCUACAGUCCGACGAUCCGGGGGGGGUAGGAGAGGAGAAAAAAAAAGUGAAAAAAAGAAACGAAAAGGACAGACGAAGAGUUUAAAGAGAAAAGGGAAAAAAGAAAGAAAAAGUAAGCAGGGCUGGCUUCGCCCGCGCAACAGAGGAUUGAGCAUCA

target: T1, UNK ZnF1-6 (called full-length); experiment: nsRBNS (natural sequence RNA bind-n-seq); RBNS binding buffer (assumed for nsRBNS): 25 mM Tris pH 7.5, 150 mM KCl, 3 mM MgCl2, 0.01% Triton X-100, 500 ug/ml BSA, 20 U/ml SUPERase-In, 4 C; UNK is unkempt and MSI1 is Musashi-1; names of the RNAs are library labels; protein concentration not given here; high values mean tight binding

Binder | binding signal [enrichment R]
B1 | 0.589
B2 | 0.516
B3 | 0.253
B4 | 0.315
B5 | 0.691
B6 | 0.303
B7 | 0.729
B8 | 0.493
B9 | 0.867
B10 | 1.15
B11 | 0.659
B12 | 0.586
B13 | 0.675
B14 | 0.729
B15 | 1.16
B16 | 1.48
B17 | 0.839
B18 | 0.776
B19 | 0.597
B20 | 1.76
B21 | 0.213
B22 | 1.3
